The list shows a part of the results. Shown are side measurements of this screen, not its main read-out; they come without a call. Most of these compounds were active or inconclusive in the main read-out, so they are no random draw. Potencies come from curve fits of mixed quality, noted in brackets.
These molecules were tested against Histamine N-methyltransferase (Homo sapiens) (UniProt P50135) (assay: Confirmatory Screen for Target Class Profiling of Small Molecule Inhibitors of Methyltransferases (AID 1745852;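 note: inhibitor potency for blocking SAH production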)). Conditions: MTase-Glo luminescence, SAH detection, recombinant enzyme; measured here: HNMT inhibition potency.
Chain of UniProt P50135 (P50135 whole entry, looked up): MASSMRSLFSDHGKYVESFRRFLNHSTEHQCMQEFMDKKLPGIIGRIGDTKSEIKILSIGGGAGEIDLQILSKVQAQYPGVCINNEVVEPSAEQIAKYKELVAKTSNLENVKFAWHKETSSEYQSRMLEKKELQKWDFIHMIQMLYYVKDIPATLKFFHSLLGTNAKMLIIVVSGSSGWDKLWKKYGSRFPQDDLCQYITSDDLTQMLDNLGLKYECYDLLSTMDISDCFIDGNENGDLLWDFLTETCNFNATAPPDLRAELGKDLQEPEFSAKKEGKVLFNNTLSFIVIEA
`Cc1cnc(C2CC2)n1C1CCCN(Cc2ccccc2)C1` (configuration not stated) was tested, and the IC50 was 15.2 µM [falling, partial curve].
For `c1ccc(CCN2CCNc3cc(NCc4cccnc4)ncc3C2)cc1`, the IC50 was 12.4 µM [falling, partial curve].
In the case of `CN(CCc1nc2ccc(Cl)cc2[nH]1)c1cc(C2CC(O)C2)nc(N)n1` (configuration not stated), the IC50 is reported as 15.2 µM [falling, partial curve].
With `O=C(CCc1nnc2n(Cc3ccc(Cl)cc3)c(=O)c3ccccc3n12)NCCN1CCCC1` the IC50 was 12.1 µM [falling, partial curve].
With `CCCCN1C(=O)c2cc(C(=O)Nc3cc(C)cc(C)c3)nn2CC1(C)C(=O)NC1CCCC1` (configuration not stated) the IC50 was 13.6 µM [falling, partial curve].
In the case of `Cn1c(=O)n(C)c2cc(S(=O)(=O)N3CCN(C4CCCCC4)CC3)ccc21`, the IC50 is reported as 5.41 µM [falling, full curve].
`CC1CCN(CCCNC(=O)C2CCc3sc(C(=O)N4CCCC4)cc3C2)CC1` (configuration not stated) was tested, and the IC50 was 17.1 µM [falling, partial curve].
`COC(=O)C(Cc1c[nH]c2ccccc12)NC(=O)c1ccccc1Br` (configuration not stated) was tested, and the IC50 was 19.2 µM [falling, partial curve].
With `O=C(CCc1nnc2n(Cc3ccccc3Cl)c(=O)c3ccccc3n12)N1CCC(N2CCCCC2)CC1` the IC50 was 13.6 µM [falling, partial curve].
For `COCCN(C)Cc1ccc2nc3sc(C(=O)N(C)C4CCCCC4)cn3c2c1`, the IC50 was 5.41 µM [falling, full curve].
In the case of `Cc1ccc([C@@H]2CN(c3cc(N4CCC(O)CC4)ncn3)C[C@H]2N(C)C)cc1`, the IC50 is reported as 19.2 µM [falling, partial curve].
`Cn1c(=O)n(C)c2cc(S(=O)(=O)N3CCN(C4CCCCC4)CC3)c(Cl)cc21` was tested, and the IC50 was 15.2 µM [falling, partial curve].
In the case of `c1cc(OCCCN2CCCCC2)ccc1CN1CCCCC1`, the IC50 is reported as 17.1 µM [falling, partial curve].
For `COc1ccc(N2CCN(C(=O)c3cc(NC(C)=O)cc4nc(C)ccc34)CC2)cc1`, the IC50 was 24.1 µM [falling, partial curve].
`CCN(CC)c1ccc2c(O)c(C=Nc3ccc(CC(=O)O)c(-c4c5c(nc6ccccc46)CCC(C(=O)NN)C5)c3)c(=O)oc2c1` (configuration not stated) was tested, and the IC50 was 7.64 µM [falling, partial curve].
In the case of `CCN(CC)CCCNC(=O)CCc1nnc2n(CCc3ccccc3)c(=O)c3ccccc3n12`, the IC50 is reported as 15.2 µM [falling, partial curve].
`Cc1ncc(CCCN(C)C)cc1Nc1ncc2c(n1)-c1ccc(C(F)(F)F)cc1NC(=S)C2` was tested, and the IC50 was 19.2 µM [falling, partial curve].
With `COc1ccc(NC(=O)c2ccc(-c3ccc(C(=N)N)cc3C)cc2)cc1N1CCN(C)CC1` the IC50 was 15.2 µM [falling, partial curve].
`CCOC(=O)c1cccc(Nc2cc(C)nc3ccc(C)cc23)c1` was tested, and the IC50 was 6.81 µM [falling, full curve].
`CCCCN1C(=O)c2cc(C(=O)NCCc3ccccc3Cl)nn2CC1(C)C(=O)NC1CCCC1` (configuration not stated) was tested, and the IC50 was 15.2 µM [falling, partial curve].
With `COc1cc2c(Nc3cc(F)c(Cl)c(Cl)c3)ncnc2cc1OCC1CCCN(C)CCC1` the IC50 was 19.2 µM [falling, partial curve].
In the case of `CN1CCN(C)c2cnc(-c3cnn(Cc4ccccc4)c3)cc2C1`, the IC50 is reported as 31.2 µM [falling, partial curve].
In the case of `CNC(=O)NCCc1ncc(C)n1C1CCCCCCC1`, the IC50 is reported as 19.2 µM [falling, partial curve].
With `Cc1[nH]cnc1C1CCN(c2nc3cccc4c3n2CCC4=O)CC1` the IC50 was 42.9 µM [falling, single point].
In the case of `COc1cc2c(NC3CCN(C(C)C)CC3)nc(N3CCC(F)(F)CC3)nc2cc1OCCCN1CCCC1`, the IC50 is reported as 12.1 µM [falling, partial curve].
With `CCc1c(Cl)c(O)c(Cl)c(O)c1C(=O)O[C@H]1[C@H](O)[C@H](OC)[C@H](OC/C2=C\C=C\C[C@H](O)/C(C)=C\[C@H](CC)[C@@H](O[C@@H]3OC(C)(C)[C@@H](OC(=O)C(C)C)[C@H](O)[C@@H]3O)/C(C)=C/C(C)=C/C[C@@H]([C@@H](C)O)OC2=O)O[C@@H]1C` the IC50 was 10.5 µM [falling, partial curve].
`Cc1cn(CCN2CCN(c3ccccc3-c3cc(C#N)cc(C(=O)NCCCN4CCCC4)c3)CC2)c2ccccc12` was tested, and the IC50 was 3.41 µM [falling, full curve].
Tags give direction and shape of the fitted curve.
